Consider 20 molecules from article PMC9911399, “Two distinct binding modes provide the RNA-binding protein RbFox with extraordinary sequence specificity”.

Substitutions are numbered along the chain they refer to; changes in the protein carry UniProt numbers. The list shows a part of the results.

T1: RBFOX1 RRM (Homo sapiens, UniProt Q9NWB1 109-208)
T1 sequence: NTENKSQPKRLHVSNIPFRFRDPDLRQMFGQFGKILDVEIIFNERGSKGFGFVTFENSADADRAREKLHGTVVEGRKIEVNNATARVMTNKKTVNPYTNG

B1: GCCCGGC (DNA:RNA)
RNA: GGGAGACCGGAAUUCAGAUUGUCCGCCCGGCUUAAAUCCCGUCGUAGCCACCA
DNA 1: CAATCTGAATTCCGGTCTCCC
DNA 2: TGGTGGCTACGACGGGATT
B2: UCCCGGU (DNA:RNA)
RNA: B1 RNA with G25U, C31U
DNA 1: CAATCTGAATTCCGGTCTCCC
DNA 2: TGGTGGCTACGACGGGATT
B3: AACAACA (DNA:RNA)
RNA: B1 RNA with G25A, C26A, C28A, G29A, G30C, C31A
DNA 1: CAATCTGAATTCCGGTCTCCC
DNA 2: TGGTGGCTACGACGGGATT
B4: UUUCAUA (DNA:RNA)
RNA: B1 RNA with G25U, C26U, C27U, G29A, G30U, C31A
DNA 1: CAATCTGAATTCCGGTCTCCC
DNA 2: TGGTGGCTACGACGGGATT
B5: UAACUCA (DNA:RNA)
RNA: B1 RNA with G25U, C26A, C27A, G29U, G30C, C31A
DNA 1: CAATCTGAATTCCGGTCTCCC
DNA 2: TGGTGGCTACGACGGGATT
B6: GAGCAUC (DNA:RNA)
RNA: B1 RNA with C26A, C27G, G29A, G30U
DNA 1: CAATCTGAATTCCGGTCTCCC
DNA 2: TGGTGGCTACGACGGGATT
B7: AAUCCAU (DNA:RNA)
RNA: B1 RNA with G25A, C26A, C27U, G29C, G30A, C31U
DNA 1: CAATCTGAATTCCGGTCTCCC
DNA 2: TGGTGGCTACGACGGGATT
B8: AUGUUCU (DNA:RNA)
RNA: GGGAGACCGGAAUUCAGAUUGUCCAUGUUCUUUAAAUCCCGUCGUAGCCACCA
DNA 1: CAATCTGAATTCCGGTCTCCC
DNA 2: TGGTGGCTACGACGGGATT
B9: GAUGAGU (DNA:RNA)
RNA: B1 RNA with C26A, C27U, C28G, G29A, C31U
DNA 1: CAATCTGAATTCCGGTCTCCC
DNA 2: TGGTGGCTACGACGGGATT
B10: AUUCAUC (DNA:RNA)
RNA: B8 RNA with G27U, U28C, U29A, C30U, U31C
DNA 1: CAATCTGAATTCCGGTCTCCC
DNA 2: TGGTGGCTACGACGGGATT
B11: ACUAGCA (DNA:RNA)
RNA: B8 RNA with U26C, G27U, U28A, U29G, U31A
DNA 1: CAATCTGAATTCCGGTCTCCC
DNA 2: TGGTGGCTACGACGGGATT
B12: CACUAUC (DNA:RNA)
RNA: B1 RNA with G25C, C26A, C28U, G29A, G30U
DNA 1: CAATCTGAATTCCGGTCTCCC
DNA 2: TGGTGGCTACGACGGGATT
B13: ACAGACU (DNA:RNA)
RNA: B8 RNA with U26C, G27A, U28G, U29A
DNA 1: CAATCTGAATTCCGGTCTCCC
DNA 2: TGGTGGCTACGACGGGATT
B14: GCUUGAC (DNA:RNA)
RNA: B1 RNA with C27U, C28U, G30A
DNA 1: CAATCTGAATTCCGGTCTCCC
DNA 2: TGGTGGCTACGACGGGATT
B15: AGUGAUC (DNA:RNA)
RNA: B8 RNA with U26G, G27U, U28G, U29A, C30U, U31C
DNA 1: CAATCTGAATTCCGGTCTCCC
DNA 2: TGGTGGCTACGACGGGATT
B16: AAGGUAC (DNA:RNA)
RNA: B8 RNA with U26A, U28G, C30A, U31C
DNA 1: CAATCTGAATTCCGGTCTCCC
DNA 2: TGGTGGCTACGACGGGATT
B17: AGCGACC (DNA:RNA)
RNA: B8 RNA with U26G, G27C, U28G, U29A, U31C
DNA 1: CAATCTGAATTCCGGTCTCCC
DNA 2: TGGTGGCTACGACGGGATT
B18: GGUUAUG (DNA:RNA)
RNA: B8 RNA with A25G, U26G, G27U, U29A, C30U, U31G
DNA 1: CAATCTGAATTCCGGTCTCCC
DNA 2: TGGTGGCTACGACGGGATT
B19: AACCUUA (DNA:RNA)
RNA: B8 RNA with U26A, G27C, U28C, C30U, U31A
DNA 1: CAATCTGAATTCCGGTCTCCC
DNA 2: TGGTGGCTACGACGGGATT
B20: UUAGCCC (DNA:RNA)
RNA: B8 RNA with A25U, G27A, U28G, U29C, U31C
DNA 1: CAATCTGAATTCCGGTCTCCC
DNA 2: TGGTGGCTACGACGGGATT

The test addresses T1, RBFOX1 RRM. In words: EMSA; HiTS-Eq, 1 nM pool, 10 min; buffer printed only for the single-RNA assays: 10 mM Tris pH 7.5, 150 mM NaCl, 3.4 mM EDTA, 0.001% NP-40, 30 C. Particulars: tags: His6 N-terminal (pET28a); label: 5' 32P. An outline of the steps:
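Relative association constants, normalised to the cognate motif, were derived by comparing read counts of each RNA species with those of the control reaction. The RNA sequenced was the free fraction, separated by 8% native PAGE after a 10 min equilibration in 50 µL of 1 nM 5′-radiolabelled RNA (7 randomized nucleotides) with increasing concentrations of purified wild-type or mutant RbFox RRM.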
Regarding B1, the binding signal is 0.019 KA relative to UGCAUGU.
B2: the binding signal was 0.00796 KA relative to UGCAUGU.
In the case of B3, the binding signal was 0.000963 KA relative to UGCAUGU.
The value for B4 was 0.0017 KA relative to UGCAUGU; that for B5 was 0.00212 KA relative to UGCAUGU.
For B6, the binding signal is 0.018 KA relative to UGCAUGU.
As to B7, the binding signal was 0.00103 KA relative to UGCAUGU.
Regarding B8, the binding signal was 0.0115 KA relative to UGCAUGU.
The same measure for B9: 0.0163 KA relative to UGCAUGU; for B10: 0.000479 KA relative to UGCAUGU; for B11: 0.0108 KA relative to UGCAUGU.
Regarding B12, the binding signal was 0.00222 KA relative to UGCAUGU.
Take B13: the binding signal is 0.00134 KA relative to UGCAUGU.
The value for B14 was 0.0267 KA relative to UGCAUGU.
For the molecule B15, the binding signal is 0.0108 KA relative to UGCAUGU.
The same measure for B16: 0.00764 KA relative to UGCAUGU; for B17: 0.0119 KA relative to UGCAUGU.
The value for B18 was 0.0112 KA relative to UGCAUGU; that for B19 was 0.000536 KA relative to UGCAUGU; that for B20 was 0.00664 KA relative to UGCAUGU.
